# Experimental data: the supplement of paper PMC11417369
# ± gives the standard deviation of the averaged measurements. The list shows a part of the results.
# System: PfAP2-EXP AP2 domain (GST-tagged)
# Assay: gcPBM binding intensity (ln(normalized median fluorescence intensity)); higher = stronger DNA binding
# Method in brief: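 DNA-binding domains from P. falciparum, fused to GST and produced in E. coli, were put on an Agilent 4 × 180k double-stranded probe array for 1 h in 1× PBS holding 1% milk, 0.2 mg/ml BSA, 0.5% salmon testes DNA and 0.03% Triton X-100. Probes were primer-extended, 36 bp long and drawn from intergenic genomic regions, with negative controls included. After Alexa488 anti-GST antibody detection and a 488 nm scan, binding intensity was set as the highest Masliner-normalised natural-log median intensity across replicate spots of either probe orientation.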
row,Sequence,gcPBM binding intensity (ln)
1,AAACAAAACAAAACATGTACACATTATATATATATA [XGTACX_site3374],9.94 ± 0.014
2,TTATTTATTTATTGTTGTACACAAAATGATTCTTAA [XGTACX_site6480],8.7 ± 0.2
3,AAAAAAAAATCAAAATGTACTTATTTTTATAATAAT [XGTACX_site4712],8.07 ± 0.45
4,TAATTATGCCAACACACACACACACCCAACTAAAAA [CACACA_site8823],8.63 ± 0.57
5,AACATCAATTTATTTTCTTACATTATACGATTCATG [CACACA_negctrl_site1300],8.5 ± 0.47
6,AAACATAAGAAACACACACACATATATATATATATA [CACACA_site3642],10.1 ± 0.35
7,ATGATGTGCAAGAGTAGTACACAATTTTGGGTTTAT [XGTACX_site501],8.76 ± 0.39
8,ATTCTTATAACAAGAAGTACAAATATATGTATATAT [XGTACX_site4528],8.46 ± 0.35
9,TTTTTTTTTAAGATGAAGATCAATATATAAATATAT [CACACA_negctrl_site1538],7.96 ± 0.47
10,TTTTCTCTCAAAAAATGTACATAATATATATATTTT [XGTACX_site4861],8.72 ± 0.47
11,AGAATATCAAAATAAAGTACATTTATTATATATATG [XGTACX_site7100],8.37 ± 0.46
12,AAAAAAAAAAAACATACACACATACATACCTATATA [CACACA_site6575],8.34 ± 0.58
13,CGTATATATAAATACACACACATATATATCTGTAAA [CACACA_site4272],8.45 ± 0.5
14,TTAATTTATTTATGCACACATATATAATTACCCATA [CACACA_site682],8.46 ± 0.14
15,AAAAAAAAAAAAAAGCGTACAAATAAAATATATTTA [XGTACX_site7195],8.52 ± 0.49
16,AATTAAATTACTTATACACACATAAAATGGGTGTAT [CACACA_site4703],8.05 ± 0.45
17,TAAATGTCCTTATTTGCACACACACCCATAAGAAAT [CACACA_site3185],8.94 ± 0.11
18,CCTTTTTTGTTTTATGCACACCATATAACCAAGGCT [CACACA_site7893],8.98 ± 0.18
19,ATGTAATGAAACATTGCACACATATAATAATATAAT [CACACA_site8402],8.45 ± 0.46

row,Sequence,gcPBM binding intensity (ln)
1,TATATATAAAAATATACACACACAAATGTATATATA [CACACA_site7956],8.21 ± 0.23
2,TTTTTATATGCGTATTGTACATTATACATATATATA [XGTACX_site6786],8.57 ± 0.28
3,TTGTTTTTAATATCGGTGCAATGGAAAGAAAAGAAG [GTGCAC_site9494],9.22 ± 0.38
4,TATACATATGAAAATACACACATACATACAGATATA [CACACA_site5002],8.65 ± 0.38
5,AAAAAAAATATAATATGTACATATCTATATATCAAC [XGTACX_site4881],8.55 ± 0.38
6,AGAAAAATTATTTTGCGTACATATTTACAATAAAAA [XGTACX_site2144],8.38 ± 0.29
7,TTTTTTTTTTTAAATTCACACAATATATAAATATTG [CACACA_site5201],8.21 ± 0.33
8,AACAAATATATATGTAGTACATGTTGTAGATAATTT [XGTACX_site24],8.73 ± 0.3
9,AAAAATAATCATTAGGTGCAAAAAATATATATATAT [GTGCAC_site9631],9.93 ± 0.11
10,TACGTAAAATAATTGAGTACATAATTATATATATAT [XGTACX_site5361],9.76 ± 0.11
11,TAAAGCATATTATAAACACACACTGTATAAAGATAT [CACACA_site296],8.71 ± 0.55
12,GTACATTATTTATATACACACAAAGAAAAATATACA [CACACA_site3452],8.68 ± 0.39
13,TTTAAAATATATAGTACACACGTGAACACAAATACA [CACACA_site4392],8.82 ± 0.36
14,TTTTTCAGAAAAGAAACACACATATTTATATTTATA [CACACA_site7167],8.2 ± 0.4
15,TATATGTATATATATTAACACACAAAAAAAAAAAAA [CACACA_site8534],8.41 ± 0.58
16,TAAACAAATAAATAAACACACAATATCTGTATTTAT [CACACA_site5978],8.17 ± 0.27
17,TAACCTATAATATTCACACACATATAAATATTATAG [CACACA_site6592],8.5 ± 0.4
18,ATTAAATCGATATATACACACATGTTTGGTATATTC [CACACA_site7285],8.6 ± 0.34
19,TTAAAATAAAGTAGTGGTACAAAAAAAAAAAAAAAA [XGTACX_site6322],8.16 ± 0.26

row,Sequence,gcPBM binding intensity (ln)
1,TTTTACTTAAAACACACACACACAAAAAAAAAAAAA [CACACA_site947],8.41 ± 0.49
2,AGTAATAGTTTGTGCACACTCAAGTATATCATATAT [CACACA_site4034],8.97 ± 0.17
3,TATATATTTAATTTCACACATATATATAATTATTAT [CACACA_site4936],8.28 ± 0.27
4,AGATAAAAAAAGTACACACACACATATATTTATATA [CACACA_site7437],8.72 ± 0.54
5,TTTTTTATTTTAAAAACATGCATAAAATATAATAGT [TGCATGCA_site762],8.94 ± 0.42
6,ATATTATATATAAAATGTACATTTAAAAATATTATA [XGTACX_site889],8.46 ± 0.45
7,ATACACACTTAAAAAAGTACTTAACTACATGAATTG [XGTACX_site1203],8.46 ± 0.49
8,TAATCATAACTTGATACGCACACGTTATATAAATAA [CACACA_site1579],8.37 ± 0.4
9,TATTTATTTATGGACACACATACAAATCTTCCAGAC [CACACA_site942],8.7 ± 0.39
10,TTGTTTTCTTATTATTACTACAATACTTAAGTCAGA [TGCATGCA_negctrl_site184],8.69 ± 0.33
11,TTTTTTATTTTGTGCACACACATAAAAATATATATA [CACACA_site761],8.97 ± 0.092
12,TTTTTTTTTTTTTAAACATGCATAATAAATATAATA [TGCATGCA_site265],8.42 ± 0.31
13,TTTTGTTGGATACAAAAATTACAAATTATTTAAAAA [TGCATGCA_negctrl_site532],8.12 ± 0.42
14,GAATACATAATAACATGTACACACATTCTTCTATAA [XGTACX_site8725],8.6 ± 0.32
15,TATATATATAGAAATGCATGTTAATAAAAGTTATAA [TGCATGCA_site947],9.11 ± 0.12
16,TATCATAAAAAATATACACACAAAGGATATTTATAT [CACACA_site6841],8.54 ± 0.35
17,TATGAACACCAACACACACACAAAAAAAAAAAAAAA [CACACA_site2013],8.18 ± 0.6
18,ATAATTATTCTTATGGTGCACTGAATATACATGTTG [GTGCAC_site9760],9.23 ± 0.071
